The list shows a part of the results.
Columns and labels:
Experiment in all cases: glycan array binding signal (z-score within array); higher = stronger binding
Conditions in all cases: glycan notation: IUPAC condensed, linker removed
GlcNAc(b1-3)Gal(b1-4)Glc = molecular target: GlcNAc(b1-3)Gal(b1-4)Glc
Summary of the method: (§1)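 Columns mapping to the same glycan were averaged after glycan names were converted to IUPAC-condensed notation. The data come from 3228 arrays in the Consortium for Functional Glycomics database, limited to those with an available protein sequence. Binding is reported as a within-array Z-score averaged across arrays of one protein sequence and across linkers.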

[1] = molecular target: GlcNAc(b1-3)Gal(b1-4)GlcNAc
Summary of the method: as §1

[2] = molecular target: GlcNAc(b1-3)Gal(b1-4)GlcNAc(b1-3)Gal(b1-4)GlcNAc
Summary of the method: as §1

GlcNAc(b1-3)GalNAc = molecular target: GlcNAc(b1-3)GalNAc
Summary of the method: as §1

GlcNAc(b1-3)Man = molecular target: GlcNAc(b1-3)Man
Summary of the method: as §1

[3] = molecular target: GlcNAc(b1-3)[GlcNAc(b1-4)][GlcNAc(b1-6)]GlcNAc
Summary of the method: as §1

[4] = molecular target: GlcNAc(b1-3)[GlcNAc(b1-6)]Gal(b1-4)GlcNAc
Summary of the method: as §1

[5] = molecular target: GlcNAc(b1-3)[GlcNAc(b1-6)]GalNAc
Summary of the method: as §1

[6] = molecular target: GlcNAc(b1-4)Gal(b1-4)GlcNAc
Summary of the method: as §1

GlcNAc(b1-4)GlcNAc = molecular target: GlcNAc(b1-4)GlcNAc
Summary of the method: as §1

[7] = molecular target: GlcNAc(b1-4)GlcNAc(b1-4)GlcNAc
Summary of the method: as §1

[8] = molecular target: GlcNAc(b1-4)GlcNAc(b1-4)GlcNAc(b1-4)GlcNAc(b1-4)GlcNAc
Summary of the method: as §1

[9] = molecular target: GlcNAc(b1-4)GlcNAc(b1-4)GlcNAc(b1-4)GlcNAc(b1-4)GlcNAc(b1-4)GlcNAc
Summary of the method: as §1

[10] = molecular target: GlcNAc(b1-4)[GlcNAc(b1-6)]GalNAc
Summary of the method: as §1

[11] = molecular target: GlcNAc(b1-6)Gal(b1-4)GlcNAc
Summary of the method: as §1

GlcNAc(b1-6)GalNAc = molecular target: GlcNAc(b1-6)GalNAc
Summary of the method: as §1

GlcNAc3Prop(b1-4)GlcNAc = molecular target: GlcNAc3Prop(b1-4)GlcNAc
Summary of the method: as §1

Kdn(a2-3)Gal(b1-3)GlcNAc = molecular target: Kdn(a2-3)Gal(b1-3)GlcNAc
Summary of the method: as §1

Kdn(a2-3)Gal(b1-4)GlcNAc = molecular target: Kdn(a2-3)Gal(b1-4)GlcNAc
Summary of the method: as §1

[12] = molecular target: Man(a1-2)Man(a1-2)Man(a1-3)Man
Summary of the method: as §1

[13] = molecular target: Man(a1-2)Man(a1-2)Man(a1-6)[Man(a1-3)]Man
Summary of the method: as §1

Man(a1-2)Man(a1-3)Man = molecular target: Man(a1-2)Man(a1-3)Man
Summary of the method: as §1

[14] = molecular target: Man(a1-2)Man(a1-3)[Man(a1-2)Man(a1-6)]Man
Summary of the method: as §1

[15] = molecular target: Man(a1-2)Man(a1-3)[Man(a1-2)Man(a1-6)]Man(a1-6)[Man(a1-2)Man(a1-2)Man(a1-3)]Man
Summary of the method: as §1

[16] = molecular target: Man(a1-2)Man(a1-3)[Man(a1-2)Man(a1-6)]Man(a1-6)[Man(a1-2)Man(a1-2)Man(a1-3)]Man(b1-4)GlcNAc(b1-4)GlcNAc
Summary of the method: as §1

[17] = molecular target: Man(a1-2)Man(a1-3)[Man(a1-6)]Man(a1-6)[Man(a1-2)Man(a1-3)]Man(b1-4)GlcNAc(b1-4)GlcNAc
Summary of the method: as §1

[18] = molecular target: Man(a1-2)Man(a1-6)[Man(a1-3)]Man(a1-6)[Man(a1-2)Man(a1-2)Man(a1-3)]Man
Summary of the method: as §1

[19] = molecular target: Man(a1-2)Man(a1-6)[Man(a1-3)]Man(a1-6)[Man(a1-2)Man(a1-2)Man(a1-3)]Man(b1-4)GlcNAc(b1-4)GlcNAc
Summary of the method: as §1

Man(a1-3)[Man(a1-6)]Man = molecular target: Man(a1-3)[Man(a1-6)]Man
Summary of the method: as §1

[20] = molecular target: Man(a1-3)[Man(a1-6)]Man(a1-6)[Man(a1-2)Man(a1-3)]Man(b1-4)GlcNAc(b1-4)GlcNAc
Summary of the method: as §1

[21] = molecular target: Man(a1-3)[Man(a1-6)]Man(a1-6)[Man(a1-3)]Man
Summary of the method: as §1

[22] = molecular target: Man(a1-3)[Man(a1-6)]Man(a1-6)[Man(a1-3)]Man(b1-4)GlcNAc(b1-4)GlcNAc
Summary of the method: as §1

[23] = molecular target: Man(a1-3)[Man(a1-6)]Man(b1-4)GlcNAc(b1-4)GlcNAc
Summary of the method: as §1

Man(a1-6)Man = molecular target: Man(a1-6)Man
Summary of the method: as §1

Man(b1-4)GlcNAc = molecular target: Man(b1-4)GlcNAc
Summary of the method: as §1

Neu5Ac(a2-3)Gal = molecular target: Neu5Ac(a2-3)Gal
Summary of the method: as §1

[24] = molecular target: Neu5Ac(a2-3)Gal(b1-3)GalNAc
Summary of the method: as §1

[25] = molecular target: Neu5Ac(a2-3)Gal(b1-3)GalNAc(b1-3)Gal(a1-4)Gal(b1-4)Glc
Summary of the method: as §1

[26] = molecular target: Neu5Ac(a2-3)Gal(b1-3)GalNAc(b1-3)Gal(b1-4)GlcNAc
Summary of the method: as §1

[27] = molecular target: Neu5Ac(a2-3)Gal(b1-3)GalNAc(b1-4)[Neu5Ac(a2-3)]Gal(b1-4)Glc
Summary of the method: as §1

[28] = molecular target: Neu5Ac(a2-3)Gal(b1-3)GalNAc6S
Summary of the method: as §1

[29] = molecular target: Neu5Ac(a2-3)Gal(b1-3)GlcNAc
Summary of the method: as §1

[30] = molecular target: Neu5Ac(a2-3)Gal(b1-3)GlcNAc(b1-3)Gal(b1-3)GlcNAc
Summary of the method: as §1

[31] = molecular target: Neu5Ac(a2-3)Gal(b1-3)GlcNAc6S
Summary of the method: as §1

[32] = molecular target: Neu5Ac(a2-3)Gal(b1-3)[Fuc(a1-4)]GlcNAc
Summary of the method: as §1

B1: GH98CBM (Clostridium perfringens) (protein)
chain: EVYALEESRDVYLSDLDWLNATHGDDTKSKIVQKNHPFTPGNNNQSTKISLKMEDGSISEFEKGLGTIAGSPSTITYDISGAGVTKFFSYLGIDRSANPINEQYAKVDKIEVVVDGKVIYSTINQFPNGLTYETPAIKVDLNIPENAKRLQLKSYAGEKTWGDEVVYADAKFTAKGDFVN
GlcNAc(b1-3)Gal(b1-4)Glc
  glycan array binding signal (z-score): -0.254
[1]
  glycan array binding signal (z-score): -0.291
[2]
  glycan array binding signal (z-score): -0.233
GlcNAc(b1-3)GalNAc
  glycan array binding signal (z-score): -0.269
GlcNAc(b1-3)Man
  glycan array binding signal (z-score): 0.097
[3]
  glycan array binding signal (z-score): -0.241
[4]
  glycan array binding signal (z-score): -0.149
[5]
  glycan array binding signal (z-score): -0.107
[6]
  glycan array binding signal (z-score): -0.126
GlcNAc(b1-4)GlcNAc
  glycan array binding signal (z-score): -0.234
[7]
  glycan array binding signal (z-score): -0.22
[8]
  glycan array binding signal (z-score): 0.002
[9]
  glycan array binding signal (z-score): -0.262
[10]
  glycan array binding signal (z-score): -0.218
[11]
  glycan array binding signal (z-score): -0.226
GlcNAc(b1-6)GalNAc
  glycan array binding signal (z-score): -0.22
GlcNAc3Prop(b1-4)GlcNAc
  glycan array binding signal (z-score): -0.189
Kdn(a2-3)Gal(b1-3)GlcNAc
  glycan array binding signal (z-score): -0.208
Kdn(a2-3)Gal(b1-4)GlcNAc
  glycan array binding signal (z-score): -0.306
[12]
  glycan array binding signal (z-score): -0.083
[13]
  glycan array binding signal (z-score): -0.06
Man(a1-2)Man(a1-3)Man
  glycan array binding signal (z-score): -0.149
[14]
  glycan array binding signal (z-score): -0.215
[15]
  glycan array binding signal (z-score): -0.242
[16]
  glycan array binding signal (z-score): -0.089
[17]
  glycan array binding signal (z-score): -0.241
[18]
  glycan array binding signal (z-score): -0.245
[19]
  glycan array binding signal (z-score): -0.256
Man(a1-3)[Man(a1-6)]Man
  glycan array binding signal (z-score): 0.317
[20]
  glycan array binding signal (z-score): -0.255
[21]
  glycan array binding signal (z-score): -0.313
[22]
  glycan array binding signal (z-score): -0.155
[23]
  glycan array binding signal (z-score): -0.263
Man(a1-6)Man
  glycan array binding signal (z-score): -0.126
Man(b1-4)GlcNAc
  glycan array binding signal (z-score): -0.183
Neu5Ac(a2-3)Gal
  glycan array binding signal (z-score): -0.141
[24]
  glycan array binding signal (z-score): -0.174
[25]
  glycan array binding signal (z-score): -0.252
[26]
  glycan array binding signal (z-score): -0.238
[27]
  glycan array binding signal (z-score): -0.223
[28]
  glycan array binding signal (z-score): -0.119
[29]
  glycan array binding signal (z-score): -0.244
[30]
  glycan array binding signal (z-score): -0.317
[31]
  glycan array binding signal (z-score): -0.128
[32]
  glycan array binding signal (z-score): -0.267
